Source: ChEMBL document CHEMBL5606460, “ASAP - DENV-2 NS2B-NS3 protease fluorescence single point” (2024)
The whole screen tested about 2,000 compounds, of which about 110 (5.5%) showed an effect of 50% or more. The list shows a part of the results.

Target: Genome polyprotein (dengue virus type 2) (UniProt P29990)
[1] = Thailand/16681/1984, Concentration 25.0 uM, Number of replicates 1.0

Compound `Cc1cc(CO)c2cccc(Cc3ccccc3NC(=O)C3(C(N)=O)CC3)c2n1` has an inhibition (Thailand/16681/1984, Concentration 49.95 uM, Number of replicates 2.0, Standard deviation 1.6381227411846766 %) of -4.94% and an inhibition (Thailand/16681/1984, Concentration 99.9 uM, Number of replicates 2.0, Standard deviation 0.7463635544405988 %) of -0.551%.
`COc1cc(Cc2cnn(-c3ccc(F)cc3)c2)nc(N2CCNCC2)n1` showed an inhibition (Thailand/16681/1984, Concentration 49.5 uM, Number of replicates 2.0, Standard deviation 0.031215136118926425 %) of 0.871%, an inhibition (Thailand/16681/1984, Concentration 99.01 uM, Number of replicates 2.0, Standard deviation 1.7579341775024742 %) of 1.83% and an inhibition (Thailand/16681/1984, Concentration 198.0 uM, Number of replicates 2.0, Standard deviation 1.6450393762001025 %) of 5.51%.
In the case of `Cn1cc(CNC(=O)c2cccc3ncccc23)cn1`, the inhibition (Thailand/16681/1984, Concentration 49.5 uM, Number of replicates 2.0, Standard deviation 0.43206015672712206 %) is reported as -3.35%, the inhibition (Thailand/16681/1984, Concentration 99.01 uM, Number of replicates 2.0, Standard deviation 1.3916787699025177 %) is reported as -0.916% and the inhibition (Thailand/16681/1984, Concentration 198.0 uM, Number of replicates 2.0, Standard deviation 0.9897515130549714 %) is reported as 0.136%.
In the case of `COc1cc(NC(=O)C2CCN(c3ccc(C=O)cc3)CC2)c(Cl)cc1Cl`, the inhibition [1] is reported as 9.48%.
In the case of `O=Cc1ccc(N2CCC(C(=O)NCc3ccccc3)CC2)cc1`, the inhibition [1] is reported as 14.5%.
With `CS(=O)(=O)c1ccc(N2CCN(C(=O)C3CCN(c4ccc(C=O)cc4)CC3)CC2)c([N+](=O)[O-])c1` the inhibition [1] was 18.6%.
Work on `c1ccc2c([C@H]3CCN(Cc4ncco4)C3)c[nH]c2c1` yielded an inhibition (Thailand/16681/1984, Concentration 49.5 uM, Number of replicates 2.0, Standard deviation 0.1074412519861532 %) of 0.43%, an inhibition (Thailand/16681/1984, Concentration 99.01 uM, Number of replicates 2.0, Standard deviation 0.6341422413381848 %) of 1.18% and an inhibition (Thailand/16681/1984, Concentration 198.0 uM, Number of replicates 2.0, Standard deviation 0.7339431969199801 %) of 1.57%.
With `Cc1ccc2nc(NC(=O)C3CCN(c4ccc(C=O)cc4)CC3)sc2c1` the inhibition [1] was 12.1%.
In the case of `COc1ccc(CN(C(=O)C2CCN(c3ccc(C=O)cc3)CC2)C2CC2)cc1`, the inhibition [1] is reported as 12.8%.
Work on `O=Cc1ccc(N2CCC(C(=O)NCc3ccccc3-c3ccccc3)CC2)cc1` yielded an inhibition [1] of 0.423%.
`c1ccc2cc(CN3CCC[C@H](c4cc5ccccc5[nH]4)C3)ncc2c1` showed an inhibition (Thailand/16681/1984, Concentration 49.5 uM, Number of replicates 2.0, Standard deviation 0.45841609838753045 %) of 3.61%, an inhibition (Thailand/16681/1984, Concentration 99.01 uM, Number of replicates 2.0, Standard deviation 0.07306004460708841 %) of 7.05% and an inhibition (Thailand/16681/1984, Concentration 198.0 uM, Number of replicates 2.0, Standard deviation 0.7024267951278979 %) of 12.2%.
For `O=Cc1ccc(N2CCC(C(=O)Nc3ccc(F)cc3I)CC2)cc1`, the inhibition [1] was 13.1%.
For `Cc1cc(CO)c2cccc(Cc3cccc(NC(=O)[C@@H]4C[C@@H](O)CN4)c3)c2n1`, the inhibition (Thailand/16681/1984, Concentration 49.95 uM, Number of replicates 2.0, Standard deviation 2.441952325018875 %) was 6.86% and the inhibition (Thailand/16681/1984, Concentration 99.9 uM, Number of replicates 2.0, Standard deviation 0.9249931753459224 %) was 21.6%.
With `Nc1nccc2cc(Br)ccc12` the inhibition (Thailand/16681/1984, Concentration 49.95 uM, Number of replicates 2.0, Standard deviation 5.1898726049351325 %) was -2.94% and the inhibition (Thailand/16681/1984, Concentration 99.9 uM, Number of replicates 2.0, Standard deviation 6.552121336877266 %) was -2.95%.
Work on `O=Cc1ccc(N2CCC(C(=O)NCc3c(F)ccc(F)c3F)CC2)cc1` yielded an inhibition [1] of 12.3%.
With `CCCCCC(=O)N[C@@H](Cc1ccccc1)C(=O)NCc1cccc(CN)c1` the inhibition (Thailand/16681/1984, Concentration 49.5 uM, Number of replicates 2.0, Standard deviation 0.5911657110409295 %) was -0.287%, the inhibition (Thailand/16681/1984, Concentration 99.01 uM, Number of replicates 2.0, Standard deviation 0.7592516208074989 %) was -0.251% and the inhibition (Thailand/16681/1984, Concentration 198.0 uM, Number of replicates 2.0, Standard deviation 1.593950905190228 %) was -0.639%.
`O=C(O)c1cccc(NC(=O)c2cccc(Br)c2)c1` gave an inhibition (Thailand/16681/1984, Concentration 49.5 uM, Number of replicates 2.0, Standard deviation 1.0600871432274672 %) of 0.013%, an inhibition (Thailand/16681/1984, Concentration 99.01 uM, Number of replicates 2.0, Standard deviation 0.9483482403189308 %) of 0.568% and an inhibition (Thailand/16681/1984, Concentration 198.0 uM, Number of replicates 2.0, Standard deviation 1.6307196050968895 %) of 1.74%.
`O=C(NC[C@H]1CCOC1)c1cc(Cl)ccc1NS(=O)(=O)c1ccc(Oc2ccccc2Cl)cc1` showed an inhibition (Thailand/16681/1984, Concentration 49.5 uM, Number of replicates 2.0, Standard deviation 2.9570930238802475 %) of 78.1%, an inhibition (Thailand/16681/1984, Concentration 99.01 uM, Number of replicates 2.0, Standard deviation 0.09728436725720986 %) of 83.4% and an inhibition (Thailand/16681/1984, Concentration 198.0 uM, Number of replicates 2.0, Standard deviation 0.16101849440059574 %) of 79%.
In the case of `Cc1cnccc1NC(=O)c1cc(C(C)C)n(C)n1`, the inhibition (Thailand/16681/1984, Concentration 49.5 uM, Number of replicates 2.0, Standard deviation 1.5485783897754013 %) is reported as -6.25%, the inhibition (Thailand/16681/1984, Concentration 99.01 uM, Number of replicates 2.0, Standard deviation 0.5615723645792781 %) is reported as -4.79% and the inhibition (Thailand/16681/1984, Concentration 198.0 uM, Number of replicates 2.0, Standard deviation 0.913779922005902 %) is reported as -1.98%.
For `COc1nc(Br)cnc1NC(=O)C1CCN(c2ccc(C=O)cc2)CC1`, the inhibition [1] was 12.3%.
`O=Cc1ccc(N2CCC(C(=O)N(C3CCCCC3)C3CCCCC3)CC2)cc1` showed an inhibition [1] of 10.2%.
With `Cc1cc(CO)c2cccc(NC(=O)C3CNC3)c2n1` the inhibition (Thailand/16681/1984, Concentration 99.9 uM, Number of replicates 2.0, Standard deviation 1.2849235527062883 %) was -8.19%.
`Cc1cc(C)cc(OCCN(C)C(=O)C2CCN(c3ccc(C=O)cc3)CC2)c1` gave an inhibition [1] of 11.6%.
In the case of `CCn1nccc1CN1CCC(c2c[nH]c3cccnc23)CC1`, the inhibition (Thailand/16681/1984, Concentration 49.5 uM, Number of replicates 2.0, Standard deviation 1.2123103279136882 %) is reported as -0.438%, the inhibition (Thailand/16681/1984, Concentration 99.01 uM, Number of replicates 2.0, Standard deviation 0.9380972206038385 %) is reported as -0.368% and the inhibition (Thailand/16681/1984, Concentration 198.0 uM, Number of replicates 2.0, Standard deviation 0.6436790194849873 %) is reported as 0.392%.
`Cn1cc(CNC(=O)c2ccccc2C2CCNCC2)cn1` was tested, and the inhibition (Thailand/16681/1984, Concentration 49.5 uM, Number of replicates 2.0, Standard deviation 1.9707471026255017 %) was -2.64%, the inhibition (Thailand/16681/1984, Concentration 99.01 uM, Number of replicates 2.0, Standard deviation 1.735749172264401 %) was -2.8% and the inhibition (Thailand/16681/1984, Concentration 198.0 uM, Number of replicates 2.0, Standard deviation 0.011774480774791443 %) was -2.33%.
With `CN1CCN(c2ccc(CNC(=O)C3CCN(c4ccc(C=O)cc4)CC3)cc2)CC1` the inhibition [1] was 13.3%.
`C[C@@H](C(=O)c1cccc(Cl)c1)N(C(=O)C1CCN(c2ccc(C=O)cc2)CC1)C(C)(C)C` showed an inhibition [1] of 11%.
`CSCC[C@H](NC(=O)OC(C)(C)C)C(=O)N1CCC[C@H]1C(=O)Nc1cccc2ncccc12` gave an inhibition (Thailand/16681/1984, Concentration 49.5 uM, Number of replicates 2.0, Standard deviation 0.8146661497156525 %) of 0.598%, an inhibition (Thailand/16681/1984, Concentration 99.01 uM, Number of replicates 2.0, Standard deviation 1.2117142239617744 %) of 1.55% and an inhibition (Thailand/16681/1984, Concentration 198.0 uM, Number of replicates 2.0, Standard deviation 0.6840708310770393 %) of 1.15%.
